This note sets out measurements from the supplement of paper PMC11417369.

The other results are listed elsewhere or left out.

This assay deals with PfAP2-HC AP2 domain (GST-tagged). Nature of the assay: gcPBM binding intensity (ln(normalized median fluorescence intensity)); higher = stronger DNA binding. The gist of the method:
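An Agilent 4 × 180k array carrying primer-extended double-stranded 36-bp intergenic genomic probes and negative controls received GST-tagged P. falciparum DNA-binding domains expressed in E. coli, about 25 μg on average, for 1 h. The binding buffer contained 1× PBS, 1% milk, 0.2 mg/ml BSA, 0.5% salmon testes DNA and 0.03% Triton X-100. Binding intensity is the top Masliner-normalised natural-log median intensity across replicate spots of either probe orientation, read after Alexa488 anti-GST antibody staining and a 488 nm scan.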
As to “ACTTTACGAATTAAGAGTACTTATTTAAGGAACACT [XGTACX_site7919]”, the “gcPBM binding intensity (ln)” value was found to be 9.51.
“ATATAAAGTATGTTAGTGCACTTTTTTTTTTTTTTT [GTGCAC_site9419]”: the “gcPBM binding intensity (ln)” value is 9.62.
The value for “GTAATACACATATAATGTACTCATAAATATATTTAT [XGTACX_site4041]” was 9.77; that for “TCATAGGAGAACTTTTGTACAGATTTTTCTTTTTTT [XGTACX_site2853]” was 9.57.
The value for “ATGTTAACTAAATGTACACACCTATGTTGATGTAAC [CACACA_site5073]” was 9.8; that for “TATATATATAAAATATGTACATAAAATTATTTATTT [XGTACX_site7666]” was 9.64; that for “AAAGTTTAAATGAGAAGTACAAATTTTTGTTTTTAT [XGTACX_site1844]” was 9.52.
The value for GTGGTTGTAATGGTGGTGCATATTGTATATTATGTT was 10.1.
Regarding “AATATAAGTGTACATACACACTTTACAATATCATAT [CACACA_site5634]”, the “gcPBM binding intensity (ln)” value stood at 9.76.
The value for “AATTTTATATATATATGTACATATTTATATGCTTAT [XGTACX_site8180]” was 9.8; that for “TTTCTATATCTTTCAACACACAAATTTTTTTTTCCA [CACACA_site108]” was 9.69; that for “ACATACATACCCCCACGTACGTACCGAAACACCACC [XGTACX_site1982]” was 9.84.
The value for “CAAAGAACTTATAGGGTGCTTTACTTATAAGTAAAT [GTGCAC_site9579]” was 9.5.
The value for “TTACTACTATATTATACACACATATATATATATATA [CACACA_site2621]” was 9.96; that for “TTTATTTATGTAGATACACACCCATGTTATATGGAG [CACACA_site9144]” was 9.6.
Consider “TTCTAATATTTTTGCACACTAAACAATAAATTTCCT [CACACA_site3944]”, for which the “gcPBM binding intensity (ln)” value was determined as 9.78.
The value for “TTAAAAGAAAAAATATGTACATATATTATATATATC [XGTACX_site7009]” was 9.67; that for “TGTGAATAAATAAGCACACATAAACACATATATAAA [CACACA_site6114]” was 10.2; that for “GTTTATTCTTTTTATACACACCTTATTTGATTAACA [CACACA_site4567]” was 9.93.
The value for “TATACATAGAAACACACACACATATATATATATATA [CACACA_site2248]” was 10.8.
The value for “AATAATATATATATATATATATATAGATATGTATAT [GTGCAC_negctrl_site653]” was 9.75.
As to “AGCAAAAATTAAATAAATAAATATATATATATATAT [TGCATGCA_negctrl_site449]”, the “gcPBM binding intensity (ln)” value amounted to 9.51.
In the case of “GCAACATTCTAAGACACACACACACCCATATATATA [CACACA_site1053]”, the “gcPBM binding intensity (ln)” value came to 10.5.
As to “AATGATGTCATAGGGGGTACACATAAATGTGAATGT [XGTACX_site6745]”, the “gcPBM binding intensity (ln)” value turned out to be 9.63.
Regarding “ATATTAATAATATATACACACATAAGTATTGTATAT [CACACA_site4095]”, the “gcPBM binding intensity (ln)” value is 9.79.
The value for “AGTTTTATATTTCTGAGTACTTATGAATCTAGCTCG [XGTACX_site4330]” was 9.35.
“TTTTTTTTTTTTTTTACACACATTTTAATAATTTTA [CACACA_site1492]”: the “gcPBM binding intensity (ln)” value amounted to 9.57.
The value for “TTGTAAAAAATTCATACACACGTCTTATTTTTAAGA [CACACA_site8390]” was 9.59; that for “ATTTTTTCTAAAAGTTGTACATTAAAACGTGTTCAC [XGTACX_site4803]” was 9.44.
The value for “TATTTATTCTCCAACACACACACATATATATATATA [CACACA_site2894]” was 10.3.
The figure for “AAAATGAATTTAAAATGTACTTTTTCTAAAGAGTAA [XGTACX_site2337]” is 9.22; for “TTATAGGTGCTTCGTAGTACATAAAAATAATATATA [XGTACX_site6979]” it is 9.52.
Take “AAGACTCTTTGTCCTTGTACATATATTTTTATGTTT [XGTACX_site3711]”: the “gcPBM binding intensity (ln)” value worked out at 9.78.
The figure for “TTTATATAATATGAATGTACTTATATATTTATAGAC [XGTACX_site3261]” is 9.55.
The value for “CACACTTTTTAAATTAACGCATTTCAAAAAAAATAT [CACACA_negctrl_site84]” was 9.42.
The figure for “TTTCTTTTTTAGAGGTGTACACGTAGGCCTCTTGGA [XGTACX_site4760]” is 9.33; for “TATTTATACACGCACACACACTTATACATTTATATA [CACACA_site7543]” it is 10.8.
As to “TTAGATATTAATATATGTACATATTAATATATTTAC [XGTACX_site7119]”, the “gcPBM binding intensity (ln)” value stood at 9.61.
As for TATAATTTTTACTGGGTGCACTCGATATTTTAAATA, the “gcPBM binding intensity (ln)” value worked out at 9.61.
As to “TAAATGTAAAACGAAATGCACACTATGGAAAATATA [CACACA_site724]”, the “gcPBM binding intensity (ln)” value was found to be 9.83.
The figure for “TATAAAATAAAAAATATATATATGTATATATATATA [TGCATGCA_negctrl_site163]” is 9.63.
With “ATTATTTTATATACATGTACATATTATATATAAAAG [XGTACX_site2735]”, the “gcPBM binding intensity (ln)” value is 9.39.
For the sequence TATAAGTGCTCAACGGTGCATTTATAGAAGTTAAAC, the “gcPBM binding intensity (ln)” value worked out at 9.61.
The value for ACATTTTTGGTTTTAGTGCAATATGAATTATTTTAT was 9.65.
